Measurements taken from article PMC3821855.
Results are given in words; binding and its absence hold for the method and conditions named. For part of these data: In cells and extracts the contact can be indirect. Some entries that bind do so weakly or less than the wild type.

Sequences of proteins named here, by UniProt entry; tags and fusion partners are left off. A change or cut given only in a name is not applied to a line headed by its entry. Residues count along the entry.
UniProt P29066: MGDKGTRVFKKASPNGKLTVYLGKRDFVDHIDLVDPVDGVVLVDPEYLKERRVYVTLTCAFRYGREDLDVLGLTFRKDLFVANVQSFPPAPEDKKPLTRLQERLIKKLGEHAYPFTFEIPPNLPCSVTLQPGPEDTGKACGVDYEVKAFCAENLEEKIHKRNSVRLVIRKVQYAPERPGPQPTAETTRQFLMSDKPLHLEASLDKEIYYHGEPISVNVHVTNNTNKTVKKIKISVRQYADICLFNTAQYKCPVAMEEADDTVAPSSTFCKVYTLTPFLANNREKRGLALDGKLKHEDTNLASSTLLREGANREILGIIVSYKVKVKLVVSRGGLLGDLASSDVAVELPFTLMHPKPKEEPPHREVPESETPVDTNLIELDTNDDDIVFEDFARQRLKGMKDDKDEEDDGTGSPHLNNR
β-arrestin-1 (1-253) in pAS2-1: residues 1-253 of P29066
β-arrestin-1 (1-163) in pAS2-1: residues 1-163 of P29066
UniProt O14974: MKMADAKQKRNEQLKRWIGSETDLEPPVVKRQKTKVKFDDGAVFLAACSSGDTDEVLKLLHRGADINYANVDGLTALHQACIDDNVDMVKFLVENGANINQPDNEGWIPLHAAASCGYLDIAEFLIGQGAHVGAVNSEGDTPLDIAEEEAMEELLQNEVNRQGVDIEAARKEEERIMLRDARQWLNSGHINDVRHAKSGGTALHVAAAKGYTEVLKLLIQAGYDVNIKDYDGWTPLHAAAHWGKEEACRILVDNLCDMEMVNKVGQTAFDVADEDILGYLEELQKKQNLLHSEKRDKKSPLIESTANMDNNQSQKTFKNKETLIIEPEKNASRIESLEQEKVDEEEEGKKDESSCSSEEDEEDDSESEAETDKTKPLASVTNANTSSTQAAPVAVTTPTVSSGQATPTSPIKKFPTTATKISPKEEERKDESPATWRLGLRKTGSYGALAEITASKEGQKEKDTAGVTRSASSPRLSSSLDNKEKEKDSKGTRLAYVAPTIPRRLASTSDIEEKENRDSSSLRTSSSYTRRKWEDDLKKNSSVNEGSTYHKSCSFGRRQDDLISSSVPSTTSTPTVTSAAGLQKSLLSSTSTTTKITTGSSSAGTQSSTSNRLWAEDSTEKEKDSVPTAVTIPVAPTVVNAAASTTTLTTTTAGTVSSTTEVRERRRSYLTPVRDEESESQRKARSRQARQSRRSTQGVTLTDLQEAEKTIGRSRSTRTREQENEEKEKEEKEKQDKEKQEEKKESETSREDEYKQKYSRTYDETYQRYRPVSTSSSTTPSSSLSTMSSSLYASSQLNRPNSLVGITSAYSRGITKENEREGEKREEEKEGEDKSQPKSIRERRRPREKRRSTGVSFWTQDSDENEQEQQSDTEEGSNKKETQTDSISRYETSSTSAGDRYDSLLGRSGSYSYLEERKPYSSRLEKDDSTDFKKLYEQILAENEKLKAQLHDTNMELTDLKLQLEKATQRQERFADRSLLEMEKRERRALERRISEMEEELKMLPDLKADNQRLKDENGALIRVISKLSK
MYPT-1(643-943) in pACT2: residues 730-1030 of O14974
UniProt P29067: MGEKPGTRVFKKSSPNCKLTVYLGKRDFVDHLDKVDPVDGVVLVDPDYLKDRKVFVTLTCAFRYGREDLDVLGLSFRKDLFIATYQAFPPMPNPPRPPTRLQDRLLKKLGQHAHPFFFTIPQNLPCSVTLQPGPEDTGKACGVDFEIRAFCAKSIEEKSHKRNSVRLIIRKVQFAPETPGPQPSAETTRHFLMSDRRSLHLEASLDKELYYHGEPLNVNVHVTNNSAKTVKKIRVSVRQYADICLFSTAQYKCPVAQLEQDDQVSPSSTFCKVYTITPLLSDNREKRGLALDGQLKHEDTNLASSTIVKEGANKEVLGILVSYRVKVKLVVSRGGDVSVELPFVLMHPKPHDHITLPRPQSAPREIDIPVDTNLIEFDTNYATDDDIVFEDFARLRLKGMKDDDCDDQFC

How the values were obtained:
[1] = target: β-arrestin-1 (1-163) in pAS2-1 (rat) (UniProt P29066); assay: two-hybrid; co-transformation of pAS2-1 β-arrestin-1 constructs with pACT2 MYPT-1(643-943) into PJ69-4A; selected on Trp/Leu dropout plates, growth on Trp/Leu/Ade dropout plates
[2] = target: β-arrestin-1 (1-253) in pAS2-1 (rat) (UniProt P29066); assay: as above
[3] = target: β-arrestin-1 (1-418), full length, in pAS2-1 (rat) (UniProt P29066); assay: as above
[4] = target: β-arrestin-1 (1-418), full length, in pAS2-1 (rat) (UniProt P29066); assay: two-hybrid; library screen: pAS2-1 β-arrestin-1 as bait, GAL4 activation domain fusion library in pACT2 (Matchmaker human heart cDNA library) as prey, yeast strain PJ69-4A; growth on Trp/Leu/His/Ade dropout plates
[5] = target: endogenous MYPT-1 (myosin light chain phosphatase Targeting Subunit) (human (endogenous in HEK-293)) (UniProt O14974); assay: co-IP; AT1aR-293 cells expressing β-arrestin-1-FLAG or β-arrestin-2-FLAG, stimulated with Ang II 1 nM for the indicated time; immunoprecipitation of endogenous MYPT-1 from whole-cell lysate (0.5% Nonidet P-40, 250 mM NaCl, pH 7.5, 4 °C), immunoblot of the FLAG tag

| binding [1] | binding [2] | binding [3] | binding [4] | binding [5] | Substance |
| --- | --- | --- | --- | --- | --- |
| no binding | binds | binds | binds | – | MYPT-1(643-943) in pACT2 (from UniProt O14974-5 643-943) (domain or fragment) |
| – | – | – | – | binds | β-arrestin-1-FLAG (from UniProt P29066 1-418) |
| – | – | – | – | binds | β-arrestin-2-FLAG (from UniProt P29067 1-410) |
